Experimental findings from paper PMC3040190 are described below.

By UniProt entry, the sequences of proteins in these tests, tags left out. Where a name states a change or a piece, a line headed by the entry shows the natural chain unless it says otherwise. Residues count along the entry.
UniProt P15331: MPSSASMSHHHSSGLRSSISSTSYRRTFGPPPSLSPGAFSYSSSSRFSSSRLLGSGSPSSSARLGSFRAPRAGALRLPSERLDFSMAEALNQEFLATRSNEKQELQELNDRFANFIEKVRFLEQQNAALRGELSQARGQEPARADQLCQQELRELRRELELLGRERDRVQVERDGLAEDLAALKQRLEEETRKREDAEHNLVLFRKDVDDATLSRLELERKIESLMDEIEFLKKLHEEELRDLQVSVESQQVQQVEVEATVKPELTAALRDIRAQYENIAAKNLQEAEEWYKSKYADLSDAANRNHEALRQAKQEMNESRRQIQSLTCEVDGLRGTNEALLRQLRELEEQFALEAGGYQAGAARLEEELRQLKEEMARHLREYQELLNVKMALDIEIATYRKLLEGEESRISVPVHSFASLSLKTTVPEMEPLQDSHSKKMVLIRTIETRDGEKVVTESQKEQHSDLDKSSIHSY
UniProt P03995: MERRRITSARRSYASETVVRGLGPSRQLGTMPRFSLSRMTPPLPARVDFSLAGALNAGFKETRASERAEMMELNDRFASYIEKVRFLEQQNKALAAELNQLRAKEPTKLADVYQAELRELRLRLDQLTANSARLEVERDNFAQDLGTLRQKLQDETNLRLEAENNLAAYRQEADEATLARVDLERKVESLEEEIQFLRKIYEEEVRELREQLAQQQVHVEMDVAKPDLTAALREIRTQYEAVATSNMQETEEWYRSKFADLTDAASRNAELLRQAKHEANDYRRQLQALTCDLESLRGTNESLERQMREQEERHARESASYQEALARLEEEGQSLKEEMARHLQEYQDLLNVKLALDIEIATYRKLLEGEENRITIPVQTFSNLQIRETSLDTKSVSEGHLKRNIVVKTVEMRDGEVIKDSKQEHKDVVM
UniProt P48670: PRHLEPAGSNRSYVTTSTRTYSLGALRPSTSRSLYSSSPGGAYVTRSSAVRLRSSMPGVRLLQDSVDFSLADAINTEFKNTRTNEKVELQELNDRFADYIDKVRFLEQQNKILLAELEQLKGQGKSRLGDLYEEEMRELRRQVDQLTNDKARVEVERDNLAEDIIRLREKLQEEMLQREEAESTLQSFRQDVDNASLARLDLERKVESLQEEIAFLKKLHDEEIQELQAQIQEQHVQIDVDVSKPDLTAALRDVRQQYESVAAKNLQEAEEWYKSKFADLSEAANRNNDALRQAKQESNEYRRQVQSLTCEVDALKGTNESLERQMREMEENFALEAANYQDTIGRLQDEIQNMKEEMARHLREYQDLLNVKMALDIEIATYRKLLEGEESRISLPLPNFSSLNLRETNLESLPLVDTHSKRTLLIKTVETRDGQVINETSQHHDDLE
MBP-Myo Va head domain (41-505) (Q99104, residues 41-505): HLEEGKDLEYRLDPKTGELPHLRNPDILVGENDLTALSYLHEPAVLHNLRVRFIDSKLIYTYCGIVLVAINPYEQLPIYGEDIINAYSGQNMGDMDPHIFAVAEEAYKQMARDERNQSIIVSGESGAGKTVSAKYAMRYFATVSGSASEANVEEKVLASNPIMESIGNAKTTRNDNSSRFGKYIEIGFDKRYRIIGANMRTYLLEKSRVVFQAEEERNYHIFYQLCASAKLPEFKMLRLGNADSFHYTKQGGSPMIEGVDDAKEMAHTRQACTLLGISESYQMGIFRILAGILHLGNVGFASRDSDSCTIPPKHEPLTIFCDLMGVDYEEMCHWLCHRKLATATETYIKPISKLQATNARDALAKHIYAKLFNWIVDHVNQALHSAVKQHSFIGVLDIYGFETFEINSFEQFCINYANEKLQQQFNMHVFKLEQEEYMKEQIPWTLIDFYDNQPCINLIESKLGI
MBP-Myo Va N-terminal motor domain (41-326) (Q99104, residues 41-326): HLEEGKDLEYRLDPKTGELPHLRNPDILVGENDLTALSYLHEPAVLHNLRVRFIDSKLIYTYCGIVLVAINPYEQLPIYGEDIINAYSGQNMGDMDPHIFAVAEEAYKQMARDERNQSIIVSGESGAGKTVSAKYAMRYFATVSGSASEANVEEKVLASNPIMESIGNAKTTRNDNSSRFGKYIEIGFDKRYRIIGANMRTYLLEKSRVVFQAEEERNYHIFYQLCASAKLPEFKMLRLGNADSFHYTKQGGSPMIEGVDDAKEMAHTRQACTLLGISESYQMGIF
MBP-Myo Va C-terminal head domain (327-505) (Q99104, residues 327-505): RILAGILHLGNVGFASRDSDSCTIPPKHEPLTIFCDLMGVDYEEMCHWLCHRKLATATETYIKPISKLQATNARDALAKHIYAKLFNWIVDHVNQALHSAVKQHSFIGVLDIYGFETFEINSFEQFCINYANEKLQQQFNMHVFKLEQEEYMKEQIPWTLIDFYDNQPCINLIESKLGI
UniProt Q02440: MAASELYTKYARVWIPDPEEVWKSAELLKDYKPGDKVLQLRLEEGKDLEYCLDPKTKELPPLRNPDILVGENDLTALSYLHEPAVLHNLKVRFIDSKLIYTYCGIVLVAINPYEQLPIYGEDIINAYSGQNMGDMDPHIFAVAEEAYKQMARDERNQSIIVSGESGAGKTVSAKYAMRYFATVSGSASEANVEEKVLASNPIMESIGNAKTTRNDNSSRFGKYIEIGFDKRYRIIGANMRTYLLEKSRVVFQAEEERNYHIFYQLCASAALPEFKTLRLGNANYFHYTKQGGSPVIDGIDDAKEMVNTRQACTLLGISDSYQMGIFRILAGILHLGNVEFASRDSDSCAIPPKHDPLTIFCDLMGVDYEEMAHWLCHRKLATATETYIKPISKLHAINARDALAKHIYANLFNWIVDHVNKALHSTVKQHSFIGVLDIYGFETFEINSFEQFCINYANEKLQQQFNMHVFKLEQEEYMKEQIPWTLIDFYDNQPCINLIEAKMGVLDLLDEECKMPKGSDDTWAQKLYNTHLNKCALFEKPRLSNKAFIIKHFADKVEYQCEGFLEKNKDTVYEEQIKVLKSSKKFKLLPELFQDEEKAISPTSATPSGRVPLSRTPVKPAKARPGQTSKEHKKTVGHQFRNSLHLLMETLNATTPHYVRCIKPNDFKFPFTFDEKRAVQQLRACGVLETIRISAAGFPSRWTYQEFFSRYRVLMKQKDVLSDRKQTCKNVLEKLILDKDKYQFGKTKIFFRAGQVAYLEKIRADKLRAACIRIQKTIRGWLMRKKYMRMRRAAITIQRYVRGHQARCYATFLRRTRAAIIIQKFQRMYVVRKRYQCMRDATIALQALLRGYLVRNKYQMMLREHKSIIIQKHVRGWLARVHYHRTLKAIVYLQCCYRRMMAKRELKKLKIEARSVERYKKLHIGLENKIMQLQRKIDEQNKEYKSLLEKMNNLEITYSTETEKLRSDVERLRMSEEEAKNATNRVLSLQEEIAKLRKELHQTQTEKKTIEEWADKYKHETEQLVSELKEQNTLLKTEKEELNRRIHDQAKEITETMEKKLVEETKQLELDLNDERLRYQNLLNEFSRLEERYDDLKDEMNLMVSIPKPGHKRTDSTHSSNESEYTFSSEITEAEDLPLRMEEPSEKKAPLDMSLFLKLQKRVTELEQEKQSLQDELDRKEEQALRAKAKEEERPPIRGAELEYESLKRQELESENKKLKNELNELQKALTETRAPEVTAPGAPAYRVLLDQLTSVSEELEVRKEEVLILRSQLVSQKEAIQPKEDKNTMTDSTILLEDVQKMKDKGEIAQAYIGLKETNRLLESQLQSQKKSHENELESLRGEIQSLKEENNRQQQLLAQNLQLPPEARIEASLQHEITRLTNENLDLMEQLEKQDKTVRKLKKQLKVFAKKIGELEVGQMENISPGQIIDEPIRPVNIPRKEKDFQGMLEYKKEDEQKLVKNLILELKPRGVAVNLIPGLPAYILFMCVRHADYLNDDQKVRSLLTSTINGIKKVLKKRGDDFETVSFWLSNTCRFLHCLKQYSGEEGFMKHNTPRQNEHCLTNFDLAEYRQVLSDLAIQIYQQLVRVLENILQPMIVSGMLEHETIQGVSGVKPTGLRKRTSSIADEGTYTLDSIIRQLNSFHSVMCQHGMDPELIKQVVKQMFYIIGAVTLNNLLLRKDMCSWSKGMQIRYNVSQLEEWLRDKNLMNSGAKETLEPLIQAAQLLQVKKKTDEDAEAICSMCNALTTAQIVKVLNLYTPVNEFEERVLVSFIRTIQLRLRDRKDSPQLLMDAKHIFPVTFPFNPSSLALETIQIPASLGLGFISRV

The target in experiment [1] is T1, neurofilament light subunit (NF-L) from mouse (mouse) (UniProt P08551).
T1 sequence: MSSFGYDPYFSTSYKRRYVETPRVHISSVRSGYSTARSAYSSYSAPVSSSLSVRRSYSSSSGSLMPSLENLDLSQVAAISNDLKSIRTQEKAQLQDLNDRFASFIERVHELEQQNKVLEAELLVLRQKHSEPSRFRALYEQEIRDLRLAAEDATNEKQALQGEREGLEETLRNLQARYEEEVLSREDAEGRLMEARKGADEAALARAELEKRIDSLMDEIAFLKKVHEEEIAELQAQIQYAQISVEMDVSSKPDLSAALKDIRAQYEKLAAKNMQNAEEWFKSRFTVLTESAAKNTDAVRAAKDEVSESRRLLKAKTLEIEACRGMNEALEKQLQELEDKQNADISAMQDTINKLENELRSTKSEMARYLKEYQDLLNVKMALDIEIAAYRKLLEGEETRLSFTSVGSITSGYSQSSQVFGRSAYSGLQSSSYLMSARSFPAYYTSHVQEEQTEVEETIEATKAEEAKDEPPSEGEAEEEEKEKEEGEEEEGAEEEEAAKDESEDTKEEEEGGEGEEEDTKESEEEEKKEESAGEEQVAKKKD
Put plainly: co-IP; MBP-Myo Va constructs (0.5-2 µg, equimolar) mixed 1 hr in 1X RIPA buffer with an excess of purified NF-L; NF-L antibody (NR-4 or 21.4) 1 hr at RT, protein A/G Sepharose; washed 3X with 500 mM NaCl, 0.1% NP40, 0.02% SDS; blotted with anti-MBP; only the target purified.

Experiment [2] concerns the target T1, neurofilament light subunit (NF-L) from mouse (mouse). Put plainly: far-Western, overlay or dot blot; blot overlay: mouse cytoskeletal fractions (brain, optic nerve, spinal cord, sciatic nerve) on 7% SDS gels, transferred to nitrocellulose, blocked with 3% milk, incubated with MBP-tagged Myo Va constructs (equimolar) overnight at 4°C, detected with anti-MBP-HRP.

Experiment [3] has the same target. Briefly: co-IP; specificity control, data not shown at least in part; NF-L with MBP-Myo Va-Head (5-752), purified MBP alone or BSA.
Experiment [4] has as its target T2, α-internexin (mouse (endogenous in optic nerve and spinal cord)) (UniProt P46660).
T2 sequence: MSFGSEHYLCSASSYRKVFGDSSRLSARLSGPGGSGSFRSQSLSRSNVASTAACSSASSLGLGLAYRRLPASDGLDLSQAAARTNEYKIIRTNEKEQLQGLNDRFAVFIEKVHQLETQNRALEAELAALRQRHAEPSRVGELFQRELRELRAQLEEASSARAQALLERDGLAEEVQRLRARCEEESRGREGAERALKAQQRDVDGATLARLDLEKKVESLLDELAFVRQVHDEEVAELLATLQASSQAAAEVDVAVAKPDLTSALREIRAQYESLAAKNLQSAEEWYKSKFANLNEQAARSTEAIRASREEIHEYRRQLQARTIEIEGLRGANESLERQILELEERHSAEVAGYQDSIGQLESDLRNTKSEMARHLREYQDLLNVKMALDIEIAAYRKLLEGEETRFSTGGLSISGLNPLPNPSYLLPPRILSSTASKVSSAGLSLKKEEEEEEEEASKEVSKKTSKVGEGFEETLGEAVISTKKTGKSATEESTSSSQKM
Briefly: far-Western, overlay or dot blot; blot overlay: mouse cytoskeletal fractions (brain, optic nerve, spinal cord, sciatic nerve) on 7% SDS gels, transferred to nitrocellulose, blocked with 3% milk, incubated with MBP-tagged Myo Va constructs (equimolar) overnight at 4°C, detected with anti-MBP-HRP.

Experiment [5] concerns the target peripherin (mouse (endogenous in optic nerve and sciatic nerve)) (UniProt P15331). Described as above.
Experiment [6] deals with GFAP (mouse (endogenous in optic nerve, spinal cord and brain)) (UniProt P03995). Described as above.
For experiment [7], the target named is T1, neurofilament light subunit (NF-L) from mouse (mouse). Briefly: co-IP; data not shown; hexa-His-tagged Myo Va tail constructs and the Myo Va head with full-length NF-L.
For experiment [8], the target named is vimentin (hamster) (hamster) (UniProt P48670). Put plainly: far-Western, overlay or dot blot; blot overlay: purified NF-L, actin, vimentin and desmin on SDS gels, transferred to nitrocellulose, incubated with MBP-Myo Va (41-326) overnight at 4°C, detected with anti-MBP-HRP; only the target purified.
Experiment [9] concerns the target T1, neurofilament light subunit (NF-L) from mouse (mouse). The experiment is described as above.
In experiment [10] the target is T3, Myc-tagged NF-L N-terminal rod domain (94-243) (mouse) (UniProt P08551).
T3 sequence: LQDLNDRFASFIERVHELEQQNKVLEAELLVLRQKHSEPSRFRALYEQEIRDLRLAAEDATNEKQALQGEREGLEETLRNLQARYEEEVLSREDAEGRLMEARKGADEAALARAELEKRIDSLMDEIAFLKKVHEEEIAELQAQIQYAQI
Put plainly: co-IP; MBP-Myo Va 41-326 mixed in 1X RIPA buffer with Myc-tagged NF-L constructs; precipitated with Myc antibody 9E10, protein A/G Sepharose; high salt washes; blotted with anti-MBP and anti-Myc; in Fig. 3C also with 5 mM magnesium and/or calcium.

The target in experiment [11] is T4, Myc-tagged full length NF-L (1-543) (mouse) (UniProt P08551).
T4 sequence: T1 sequence
The description is as above.

In experiment [12] the target is T5, Myc-tagged NF-L head + rod (1-243) (mouse) (UniProt P08551).
T5 sequence: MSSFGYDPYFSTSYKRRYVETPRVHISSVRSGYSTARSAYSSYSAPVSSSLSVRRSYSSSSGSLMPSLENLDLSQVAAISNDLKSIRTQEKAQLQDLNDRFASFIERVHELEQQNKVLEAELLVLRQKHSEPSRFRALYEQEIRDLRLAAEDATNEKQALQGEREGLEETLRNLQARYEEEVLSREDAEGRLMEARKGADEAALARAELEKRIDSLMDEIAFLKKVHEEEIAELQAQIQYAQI
Described as above.

Results are given in words; binding and its absence hold for the method and conditions named. For part of these data: In cells and extracts the contact can be indirect. Some results given as binding are weak or reduced against the parent protein; the word gives no strength. For part of these data: Tags and fused reporters may be left off the sequences shown.

On to “MBP-Myo Va head domain (41-505) (from UniProt Q99104 41-505) (domain or fragment)”, for which the binding result in [1] and in [2] was “binds” in each case.

Regarding “MBP-Myo Va neck region (760-922) (from UniProt Q02440 760-922) (domain or fragment)”, in [1], the binding entry is recorded as “binds”.

Turning to “MBP-Myo Va neck region (800-881) (from UniProt Q02440 800-881) (domain or fragment)”, in experiment [1], the binding entry was “binds weakly”.

As for “MBP-Myo Va head domain (5-752) (from UniProt Q02440 5-752) (domain or fragment)”, the binding result in [1], in experiment [3], in [4], in experiment [5], in [2] and in experiment [6] was “binds” throughout. Further, the binding entry in experiment [7] is listed as “binds”.

In the case of “MBP-Myo Va C-terminal head domain (327-505) (from UniProt Q99104 327-505) (domain or fragment)”, the binding entry is recorded as “no binding (tested: 0.5–2 µg)” in experiment [1] and “no binding” in [2].

Turning to “MBP-Myo Va N-terminal motor domain (41-326) (from UniProt Q99104 41-326) (domain or fragment)”, the binding entry in [1], in experiment [8], in experiment [9], in [10], in experiment [11] and in experiment [12] was “binds” each time. Besides, the binding entry in experiment [4], in [5], in experiment [2] and in experiment [6] was “binds” throughout.

As for “MBP-Myo Va tail domain (899-1830) (from UniProt Q02440 899-1829) (domain or fragment)”, in experiment [1], the binding entry is “no binding (tested: 0.5–2 µg)”.
